Results reported in the supplement of paper PMC3334620.
The full ranking holds about 33,000 sequences; the median of “E-score (-0.5 to 0.5)” is about -0.032, and the highest 2% start at about 0.36. The list shows a part of the results.

molecular target: T1, Sko1 (UniProt Q02100); test: PBM E-score (8-mer binding enrichment) (E-score (-0.5 to 0.5)); higher = stronger / more preferred TF binding; most listed sequences are background and not binding sites; conditions: protein concentration: 200 nM; construct: GST-full length
T1 sequence: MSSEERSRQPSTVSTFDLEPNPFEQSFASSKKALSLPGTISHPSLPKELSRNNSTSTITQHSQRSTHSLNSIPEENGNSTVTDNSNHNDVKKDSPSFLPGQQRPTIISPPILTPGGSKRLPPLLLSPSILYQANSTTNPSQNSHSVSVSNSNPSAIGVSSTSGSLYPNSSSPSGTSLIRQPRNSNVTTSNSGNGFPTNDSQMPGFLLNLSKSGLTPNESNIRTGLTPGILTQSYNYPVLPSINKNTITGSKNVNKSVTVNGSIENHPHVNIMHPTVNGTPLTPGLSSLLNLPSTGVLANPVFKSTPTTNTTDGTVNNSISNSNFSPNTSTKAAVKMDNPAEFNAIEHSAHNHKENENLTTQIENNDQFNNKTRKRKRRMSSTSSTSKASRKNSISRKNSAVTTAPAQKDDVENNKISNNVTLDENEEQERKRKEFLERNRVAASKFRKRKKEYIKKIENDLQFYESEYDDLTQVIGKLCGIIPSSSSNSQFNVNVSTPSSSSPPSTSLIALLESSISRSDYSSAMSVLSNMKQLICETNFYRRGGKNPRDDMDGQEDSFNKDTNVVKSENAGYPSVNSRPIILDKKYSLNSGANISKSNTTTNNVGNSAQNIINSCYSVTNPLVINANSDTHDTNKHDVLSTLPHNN
Outline: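 GST-tagged yeast TFs (full-length or DNA-binding domain) were made by PURExpress in vitro transcription/translation and applied at about 100-200 nM to universal all-10-mer Agilent arrays. The arrays were made double-stranded by primer extension, on fresh or once-stripped slides. Bound protein was detected with fluorescent anti-GST, and scans were normalised with masliner. Each ungapped eight-base word, pooled with its reverse complement, received an E-score (modified Wilcoxon-Mann-Whitney statistic) from the Universal PBM Analysis Suite.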

Sequence	PBM E-score
GTATCATA	0.275
AAGCCTTC	-0.176
CTGGACTC	-0.0221
ACGTCAGA	0.479
CGGTGAAG	-0.173
CCATCTCA	-0.105
CAAGTCGC	-0.173
ACGAGCAC	-0.0211
ACCTTCAA	-0.0578
AGAAATTG	0.145
CCATCGCA	-0.183
GGCCTATA	-0.291
CTACTCTC	-0.211
ATACGCTC	0.151
AATTTTAG	-0.0264
AGTGCGGC	-0.213
CGTTGGTC	0.00799
CCTTTCGC	-0.152
ACTCCTAT	0.0982
CACCGTAG	-0.111
CGCCCGCG	-0.155
CGGGTACA	-0.279
GACCCGAC	-0.164
TATCATGA	0.244
ACCTAGAA	0.0146

Sequence	PBM E-score
ACCTTATA	0.0285
CCAAACGG	-0.31
GCCTTCCA	-0.222
ATTTATAC	0.277
AATTGGCC	-0.147
AGCCGGAC	-0.00106
CGCAGGTA	-0.0238
GGGGAGAA	-0.194
CGCCCCCC	-0.443
CCGGTTAA	-0.153
CGTTACTC	0.106
GTAAAGTA	0.291
CCAATGTA	-0.208
GCACGACC	-0.266
CAAGTGTC	-0.125
AACCAGAG	-0.201
ATTCCCTC	-0.151
AAGCGGGT	-0.268
CCTTAAGA	-0.167
GAACAGAA	-0.00509
ATATAGAG	-0.151
ACCTCCTA	-0.243
CAGAATCG	-0.0197
GCAGGATA	-0.0876
AGTTACAC	0.15

Sequence	PBM E-score
CGACATAC	0.251
AGTTGGAT	0.0493
GACGGCAC	-0.055
TCAACAGA	-0.0092
CGCAGTGC	-0.102
AGCGAGAA	-0.152
ACGTATCG	0.452
ACGTGCTC	0.291
ACGGCTCA	-0.165
ATACTAAC	0.0101
CAGAAGCA	-0.122
ACGTACTG	0.412
CCCGGGCG	-0.156
CACGTAGG	0.396
CGGAATTC	-0.122
CTTATTAC	0.245
ACCGTGCC	-0.164
GATCACCC	-0.21
CGTGCACC	0.051
ACTGCTGG	-0.307
ACCTACTG	-0.0696
CTGCGAGA	-0.169
ACAATTCA	0.0199
ACACCTGC	-0.064
ATGTATTC	-0.0566

Sequence	PBM E-score
TCCTGTAA	0.0112
CTCGGCCA	-0.233
AAAGTTTG	0.155
ACGAGTAA	0.155
GCTCAGTA	0.159
CTTATAAC	0.197
ATACAGCG	-0.0118
CTACCCAC	-0.132
CTGTCAAA	0.0958
ATAGGCAT	-0.15
ACTACTAT	0.132
GTCACACA	0.0871
GATGGCGC	-0.195
CGTGGATC	0.154
ACGTAAGA	0.476
GACTCGAA	-0.281
TAATTCAA	0.265
GCGAGTCC	-0.334
CTGTCGCC	-0.277
ATCGGGCC	-0.222
AATCAACA	0.202
CTTGAGCC	-0.324
GAGCTCTA	-0.162
CGCCTGGA	-0.175
ACATCTAG	-0.0627

Sequence	PBM E-score
ATCAACAC	0.104
CTTCATAC	0.101
CCGTGCGA	-0.0151
CTGAAAGA	-0.0455
TCTAGACA	0.00373
AAGCAGAC	-0.211
AGTGGAAA	-0.0144
GGCAATAC	0.0466
CGAGACCG	-0.248
GCCTTCGA	-0.202
ACCATGGC	-0.0206
CTTATCCA	0.0147
AAAAGATA	0.222
CCATCCCG	-0.175
GATTTGCA	0.0954
AACTCCTG	-0.114
TATCTCAA	0.292
AACCGATA	0.0484
AATGGCGA	0.0785
ACACCGTG	-0.162
CCGGTTGC	-0.0613
GTGCTTTA	0.0343
GAGAGCGA	-0.12
AATTCGTA	0.386
CCTTTGCC	-0.173

Sequence	PBM E-score
CACACATG	-0.0923
GGTGTGAA	0.114
ACATTAGA	0.0175
CCTAATAG	-0.0863
CGTTGCAG	0.00309
GGCTTGAA	0.0693
CCAACCCG	-0.184
GGTTTTAA	-0.0912
AGACCCTG	-0.24
AACATGCA	0.127
CCTAGCTC	-0.211
TAATCGAA	0.16
CAAGATGG	-0.23
CCACTGCA	-0.123
AAATGGGA	-0.183
CAAATTGG	0.178
GCGAAAAA	0.13
AGACGGCC	-0.254
AGACCTAC	0.0184
CATCTAAG	-0.0102
CACTTTGG	-0.0531
TCGATAAA	0.0914
AGGGGTTA	-0.257
GCCTTCAC	-0.149
ATTGGAAA	0.0614

Sequence	PBM E-score
AGTAAAAT	0.192
TATCAATA	0.223
AACCACAC	0.179
CAATGCAA	-0.00957
GTACCTTA	0.171
GCCTAACA	-0.0138
CTGACAGA	0.0772
CGGAGACC	-0.309
CTATTAAG	-0.153
TCACGGAA	0.156
AGCCGCCA	-0.396
CGGGCTCA	-0.332
AAGCATCC	-0.175
GTGTTACA	0.0921
AAACGCTA	0.0383
GACGACAA	0.188
AGGCGATA	-0.204
GCCGTAGC	-0.328
CGTCAGAG	0.429
ATGTCCCG	-0.227
GGGCCTAC	-0.216
CACTGGCG	-0.133
CCTACAAA	-0.0324
GCACCACC	-0.221
ACCCGAGA	-0.227

Sequence	PBM E-score
AGACCCGG	-0.241
CGGTGAGA	0.0109
ACTGTGCT	-0.0224
CAATACAC	0.236
AAGCCGAA	-0.0554
ACTGACTA	0.0497
GTTTAATA	0.218
ACCTCTAT	-0.238
CCGTACCC	-0.335
CGCCGCCA	-0.168
AAAACCTA	0.168
AAGTAAAA	0.0455
AATCCAAG	0.0599
TCCGGACA	-0.0176
TACCTATA	0.0587
GCTCGTAA	0.231
GCCACTAA	-0.066
ACTCGGCA	-0.163
GCACACAA	0.0196
AAGTGTCA	-0.131
CAAATGTG	0.0776
AAGTGAAC	-0.0503
AGGGAGAT	-0.298
GTGCTCCA	0.00811
ACAAAAGC	-0.0688

Sequence	PBM E-score
ATGATACC	0.118
AACGCTGC	0.00058
GTAGGTGA	0.211
CGTAAGCC	0.203
TCAGATGA	0.179
AGTAATAG	0.264
AGGGGCCA	-0.333
CGATGGCC	-0.189
CTCGACTA	-0.153
CAGGGCAC	-0.107
GCAGTACC	-0.0592
ATCTGTAG	-0.0704
GCCACAGC	-0.259
TACACGGA	0.142
AAGCGACG	-0.0227
AACTCAAA	0.0306
TATCTAAA	0.0894
AAAAAGCC	-0.102
AGATTGTA	0.0877
ATGGGGAG	-0.0947
GGTTTCGA	-0.219
CCGGTAAG	-0.0749
GCGCTCTA	-0.155
TAACGCGA	0.0991
GATCGCGA	-0.0804

Sequence	PBM E-score
TGACGAAA	0.463
CTGTACAA	-0.0117
TACGGAGA	-0.00834
TAGAAGAA	-0.145
CCGAAGTA	-0.114
AGTTTTAT	0.185
CGCCATAC	0.245
CAAATAAC	0.33
AATCAACT	0.141
CAATGCCA	-0.128
CGTTCTTA	0.207
ACATCGCC	-0.0592
AACCATTC	-0.0657
CGACATAG	0.0941
TGGCATAA	0.215
GGGGCGAC	-0.228
TCCTGCAA	0.0258
CGTACGCA	0.332
CTGGAGAC	-0.00968
TGACTGCA	-0.0463
AAAAATTG	0.168
AAAGGACG	0.11
TGCATCAA	0.105
ATATAAAG	0.0959
GGCGCATA	-0.0137

Sequence	PBM E-score
CATGAGAC	-0.0597
CTCTGAAG	-0.182
CAAGACCG	-0.262
ACTGCCTC	-0.233
TGGCCTAA	0.0672
AACCGTCT	-0.239
ATCATCCA	0.013
CACATCGC	-0.0517
AAAACGTC	0.409
GATAGTAA	0.0985
GTCAAAAC	0.173
TATGTACA	0.254
AAAGCCAC	-0.0209
AGGCCCGC	-0.102
CCCACTAG	-0.271
GTGAGCTA	0.0389
AAGAAATC	-0.0158
CGCAGGTC	-0.194
CCCCGTGA	-0.166
GAGAATAA	0.0587
AAACTAGC	-0.135
GGATAAAC	0.124
GGTTACAA	-0.00351
AATACATA	0.24
AACGGGCG	-0.151

Sequence	PBM E-score
AACCTGCA	-0.11
AAAGCACA	0.0298
TATAAATA	0.298
GGGTTTAC	0.23
ATACGCCG	-0.00989
ATACCTAA	0.278
AGCGAGTA	-0.121
AGTGCCAA	-0.171
GGATGGCC	-0.329
CTGAGACC	-0.198
GATCTCAA	-0.0378
ACTGGCAC	-0.245
AGAGCGAA	-0.147
GCTCATGA	0.146
GAGGGGTA	-0.202
CATTAGAC	-0.0307
CGGCTACC	-0.175
AATGCGTC	0.185
CAGAGTAA	0.0459
GTTCCTTA	-0.086
ACGGGAAG	-0.217
CAGAGATA	0.0908
CTGGCTCC	-0.261
AGAGCCTC	-0.266
TCATCGCA	0.125

Sequence	PBM E-score
ACTAGCCC	-0.191
AGAGGCAG	-0.287
AATAGTGA	0.124
AGGGAGTG	-0.143
AGCACGTG	0.397
AACTGTAT	0.0129
CCTCATAG	0.1
GCTAGTAC	0.0207
CCAGGAAG	-0.0879
TATCCTCA	-0.0101
AGGCAACT	0.158
AACGAAAT	0.261
AAGGGACC	-0.26
GCGGGTAC	-0.0713
ACGGTAAG	-0.076
CAACCGAA	0.0842
ACAACACA	0.145
AGAATGGC	0.0313
ACAGCCAT	0.0326
AATGGGGG	-0.334
AGTTCGAT	-0.029
AAGAAAGC	-0.0127
AACTCCGT	-0.0262
ACAGAGAT	0.168
CACGCACG	0.204

Sequence	PBM E-score
ATTTTGCC	-0.0624
ATTGGGTG	0.0341
ACCGTGGG	-0.239
TGCAGTAA	-0.0626
CATCGTGG	-0.173
GTCCGGAA	-0.102
ACTAGGCA	-0.0299
AGGTCGCA	-0.239
AGGAGGGA	-0.3
GTTTCAAA	0.116
AGATAAAT	0.127
GACACCAC	-0.0851
ACATACTC	0.0979
AATGTAGC	-0.177
ACGGCAGC	-0.123
CGTAGTGA	0.307
GTCACTCA	0.296
CAGGCGGA	-0.17
TAAAGAGA	0.0871
